Screen size: about 94,000 compounds; about 20 (0.02%) were called active. Inconclusive means that the source gave no clear call. Such entries were picked first, then a sample of the others. Calls come from the whole dose curve; as a rule, active = well fitted activation curve with a large enough effect; inconclusive = small, poorly fitted or top-dose-only effect; inactive = flat fitted curve, though single readings scatter. Potencies of inconclusive entries are left out as doubtful fits.
assay: qHTS of alpha-syn Inhibitors: NCGC Sytravon Library Screen; for growth rescue (activation): 0% is about no effect; conditions: S. cerevisiae alpha-synuclein toxicity rescue, BacTiter-Glo growth, 24 h; growth rescue (activation): at 46.1 µM (top of the series)
Outline: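 Growth restoration measured by BacTiter-Glo luminescence after 24 hr at 30 deg C; alpha-synuclein yeast, raffinose-pregrown to mid-log, were added at OD600=0.02 in galactose medium onto pinned compounds.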
Potency is the fitted concentration of half-maximal effect; tags give direction and shape of the fitted curve.

Compound	growth rescue (activation)	Potency
Cc1ccc(Cc2nc3ccccc3nc2SCC(=O)N2CCCCC2C)cc1 (stereo unspecified)	inactive: 20.4%	–
Cc1cccc(CC(=O)NCCc2csc(-c3ccc(C(F)(F)F)cc3)n2)c1	–	inconclusive [activator, single point]
COc1ccc(N2CCN(c3ccc(-c4nc(-c5cccc(C)c5)no4)cc3[N+](=O)[O-])CC2)cc1	inactive: -7.53%	–
COC(=O)c1cc(S(=O)(=O)N2CCN(c3cc(Cl)ccc3C)CC2)c[nH]1	–	inconclusive [activator, single point]
Cc1ccc(CNC(=O)Cn2cc3c(n2)-c2c(oc(C(=O)N4CCOCC4)c2C)CC3)cc1	inactive: 3.73%	–
Cc1cc(C)n(CC(=O)Nc2cc(F)ccc2F)c(=O)c1C#N	inactive: -4.38%	–
COc1cc(CNCCSc2nnnn2C)ccc1OCc1ccccc1C	inactive: 6.73%	–
CCc1ccc(CNC(=O)c2cnc(N3CCCCC3)c3ccccc23)cc1	–	inconclusive [activator, single point]
O=C(Nc1nnc(-c2ccco2)o1)c1ccc(Cl)cc1	inconclusive: 263% [activator]	–
O=C1CN(C(=O)c2ccc(S(=O)(=O)N3CCCCC3)cc2)C(c2ccc(F)cc2)c2cc(Cl)ccc2N1 (stereo unspecified)	–	inconclusive [activator, single point]
Cc1ccc2c(c1)-c1c(cnn1CC(=O)N1CCN(c3cc(C)ccc3C)CC1)CO2	–	inconclusive [activator, single point]
Cc1ccc(C)c(-c2ccc(=O)n(Cc3ccc(F)cc3Cl)n2)c1	–	inconclusive [activator, single point]
c1ccc(CSc2nnc(C3CCNCC3)o2)cc1	inactive: 6.57%	–
O=S(=O)(c1cccc(C(F)(F)F)c1)N1CCC(Oc2ccc(-n3cnnn3)cc2)CC1	–	inconclusive [activator, single point]
Cc1ccc(OCC(=O)N(Cc2ccc(Cl)cc2)CC2CCCO2)cc1C (stereo unspecified)	–	inconclusive [activator, single point]
O=C(CSc1nc2ccccc2nc1Cc1ccccc1)N1CCN(c2ccccc2)CC1	inconclusive: 31.3% [activator]	–
Cc1c(-c2cccc(NC(=O)Nc3ccccc3)c2)nc2ncccn12	inactive: 2.38%	–
CC(=O)c1ccc(NC(=O)c2nc(-c3ccccc3)n(-c3ccccc3Cl)n2)cc1	inconclusive: 30.4% [activator]	–
Cc1cccc(N2CCN(C(=O)Cn3ncc4c3-c3ccccc3OC4)CC2)c1C	–	inconclusive [activator, single point]
CCC(=O)N1CCc2cc(S(=O)(=O)NC(CC(C)C)C(=O)Nc3cc(C)ccc3OC)ccc21 (stereo unspecified)	inactive: -0.971%	–
CCNC(=O)C(C)NC(=O)C1=NN(c2ccccc2)C(=O)CC1 (stereo unspecified)	inactive: -3.91%	–
COc1cc(OC)c(NC(=O)CCn2cnc3onc(-c4ccc(F)cc4)c3c2=O)cc1Cl	inactive: -2.76%	–
O=C(c1[nH]c2ccccc2c1Sc1ccc(Cl)cc1)N1CCCCC1	–	inconclusive [activator, single point]

Compound	growth rescue (activation)	Potency
CCOc1cccc(CC(=O)N2CCc3c([nH]c4ccccc34)C2c2ccccc2)c1OCC (stereo unspecified)	–	inconclusive [activator, single point]
O=C(CC1SC(=Nc2ccccc2)N(CCc2c[nH]c3ccccc23)C1=O)Nc1ccccc1F (stereo unspecified)	inconclusive: 47.5% [activator]	–
Nc1nonc1C(=O)N/N=C/c1cc(Br)ccc1O	inconclusive: 527% [activator]	–
CCOc1ccc(-c2cn3c(n2)sc2cc(C(=O)NCCCc4ccccc4)ccc23)cc1	inactive: 1.94%	–
CCOC(=O)c1c(C)oc2nc(C)nc(NCc3ccccc3OCC)c12	–	inconclusive [activator, single point]
COc1ccc(-c2cc(=O)oc3cc(OC(C)C(=O)NCC4CCC(C(=O)O)CC4)ccc23)cc1 (stereo unspecified)	inactive: -0.947%	–
Cc1ccc(C(=O)NCC(c2cccnc2)N2CCc3ccccc32)cc1C (stereo unspecified)	–	inconclusive [activator, single point]
COc1cccc(OCc2nc3ccccc3n2CCOc2ccccc2C)c1	–	inconclusive [activator, single point]
O=C(Cc1ccc(F)cc1)NC1CC(=O)N(c2ccccc2)C1 (stereo unspecified)	inactive: -0.762%	–
COc1ccc(NC(=O)c2c(NCc3ccc(C)o3)sc3c2CCC(C)C3)c(OC)c1 (stereo unspecified)	–	inconclusive [activator, single point]
COc1ccc(OC)c(NC(=O)CSc2ccnc(=O)[nH]2)c1	inactive: 5.54%	–
COc1ccc2cc(-c3nc4ccc(C(=O)O)cc4[nH]3)c(=O)oc2c1	inactive: -21.2%	–
O=C(NC(=S)Nc1ccc(S(=O)(=O)NC2CCCCC2)cc1)c1cccs1	inconclusive: 67.4% [activator]	–
CCc1cccc(NC(=O)Cn2nc(-c3ccc(OC)cc3)ccc2=O)c1	inconclusive: 30.3% [activator]	–
CCc1ccc(CNC(=O)CN2CCSc3ccccc32)cc1	–	inconclusive [activator, partial curve]
CCc1cccc(C)c1NC(=O)CSc1nnc(CC)n2c1cc1occc12	–	inconclusive [activator, single point]
O=C(N/N=C/c1cccc2cccnc12)c1ccccc1O	inconclusive: 263% [activator]	–
CCc1cccc(CC)c1NC(=O)c1ccc2c(c1)CCN2S(=O)(=O)c1ccccc1	–	inconclusive [activator, single point]
Cc1cccc(NC(=O)CN2C(=O)c3cccnc3Oc3ccc(Cl)cc32)c1C	–	inconclusive [activator, single point]
Cc1nc2scc(C)n2c(=O)c1S(=O)(=O)Nc1ccc(N2CCOCC2)cc1	–	inconclusive [activator, partial curve, poor fit]
CCOc1ccc(CCNc2ncnc3onc(-c4ccc(F)cc4)c23)cc1OCC	inactive: 0.287%	–
Fc1cccc(NCc2cccn2-c2nnc(N3CCOCC3)s2)c1	–	inconclusive [activator, single point]
CCOc1ccccc1CNC(=O)c1[nH]c2ccccc2c1Sc1ccccc1	–	inconclusive [activator, single point]
